# Experimental data: the supplement of paper PMC8728848
# The list shows a part of the results.
# B1: MGL (Homo sapiens), Q8IUN9 (protein)
# chain: MTRTYENFQYLENKVKVQGFKNGPLPLQSLLQRLCSGPCHLLLSLGLGLLLLVIICVVGFQNSKFQRDLVTLRTDFSNFTSNTVAEIQALTSQGSSLEETIASLKAEVEGFKQERQAGVSELQEHTTQKAHLGHCPHCPSVCVPVHSEMLLRVQQLVQDLKKLTCQVATLNNNASTEGTCCPVNWVEHQDSCYWFSHSGMSWAEAEKYCQLKNAHLVVINSREEQNFVQKYLGSAYTWMGLSDPEGAWKWVDGTDYATGFQNWKPGQPDDWQGHGLGGGEDCAHFHPDGRWNDDVCQRPYHWVCEAGLGQTSQESH
# How the values were obtained:
# Assay in all cases: glycan array binding signal (z-score within array); higher = stronger binding
# Details in all cases: glycan notation: IUPAC condensed, linker removed
# [1] = biological target: Neu5Ac(a2-3)Gal
# How it was run: (§1)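 From the Consortium for Functional Glycomics database, 3228 arrays were curated, keeping only those whose protein sequence was available. Binding is given as a within-array Z-score averaged across arrays sharing a protein sequence and across linkers. Negative Z-scores can be read as non-binding.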
# [2] = biological target: Neu5Ac(a2-3)Gal(b1-3)GalNAc
# How it was run: as §1
# [3] = biological target: Neu5Ac(a2-3)Gal(b1-3)GalNAc(b1-3)Gal(a1-4)Gal(b1-4)Glc
# How it was run: as §1
# [4] = biological target: Neu5Ac(a2-3)Gal(b1-3)GalNAc(b1-4)[Neu5Ac(a2-3)]Gal(b1-4)Glc
# How it was run: as §1
# [5] = biological target: Neu5Ac(a2-3)Gal(b1-3)GalNAc(b1-4)[Neu5Ac(a2-8)Neu5Ac(a2-3)]Gal(b1-4)Glc
# How it was run: as §1
# [6] = biological target: Neu5Ac(a2-3)Gal(b1-3)GalNAc6S
# How it was run: as §1
# [7] = biological target: Neu5Ac(a2-3)Gal(b1-3)GlcNAc
# How it was run: as §1
# [8] = biological target: Neu5Ac(a2-3)Gal(b1-3)GlcNAc(b1-2)Man
# How it was run: as §1
# [9] = biological target: Neu5Ac(a2-3)Gal(b1-3)GlcNAc(b1-2)Man(a1-3)[GlcNAc(b1-4)][Neu5Ac(a2-3)Gal(b1-3)GlcNAc(b1-2)Man(a1-6)]Man(b1-4)GlcNAc(b1-4)GlcNAc
# How it was run: as §1
# [10] = biological target: Neu5Ac(a2-3)Gal(b1-3)GlcNAc(b1-2)Man(a1-3)[Neu5Ac(a2-3)Gal(b1-3)GlcNAc(b1-2)Man(a1-6)]Man(b1-4)GlcNAc(b1-4)GlcNAc
# How it was run: as §1
# [11] = biological target: Neu5Ac(a2-3)Gal(b1-3)GlcNAc(b1-2)[Neu5Ac(a2-3)Gal(b1-3)GlcNAc(b1-4)]Man(a1-6)[Neu5Ac(a2-3)Gal(b1-3)GlcNAc(b1-2)Man(a1-3)]Man(b1-4)GlcNAc(b1-4)GlcNAc
# How it was run: as §1
# [12] = biological target: Neu5Ac(a2-3)Gal(b1-3)GlcNAc(b1-3)Gal(b1-3)GlcNAc
# How it was run: as §1
# [13] = biological target: Neu5Ac(a2-3)Gal(b1-3)GlcNAc(b1-3)Gal(b1-4)GlcNAc
# How it was run: as §1
# [14] = biological target: Neu5Ac(a2-3)Gal(b1-3)GlcNAc(b1-3)GalNAc
# How it was run: as §1
# [15] = biological target: Neu5Ac(a2-3)Gal(b1-3)GlcNAc(b1-4)Gal(b1-4)Glc
# How it was run: as §1
# [16] = biological target: Neu5Ac(a2-3)Gal(b1-3)GlcNAc(b1-6)GalNAc
# How it was run: as §1
# [17] = biological target: Neu5Ac(a2-3)Gal(b1-3)GlcNAc6S
# How it was run: as §1
# [18] = biological target: Neu5Ac(a2-3)Gal(b1-3)[Fuc(a1-4)]GlcNAc
# How it was run: as §1
# [19] = biological target: Neu5Ac(a2-3)Gal(b1-3)[Fuc(a1-4)]GlcNAc(b1-3)Gal(b1-3)[Fuc(a1-4)]GlcNAc
# How it was run: as §1
# [20] = biological target: Neu5Ac(a2-3)Gal(b1-3)[Fuc(a1-4)]GlcNAc(b1-3)Gal(b1-4)[Fuc(a1-3)]GlcNAc
# How it was run: as §1
# [21] = biological target: Neu5Ac(a2-3)Gal(b1-3)[GlcNAc(b1-6)]GalNAc
# How it was run: as §1
# [22] = biological target: Neu5Ac(a2-3)Gal(b1-3)[Neu5Ac(a2-6)]GalNAc
# How it was run: as §1
# [23] = biological target: Neu5Ac(a2-3)Gal(b1-3)[Neu5Ac(a2-6)]GlcNAc(b1-3)[Fuc(a1-3)[Gal(b1-4)]GlcNAc(b1-6)]Gal(b1-4)Glc
# How it was run: as §1
# [24] = biological target: Neu5Ac(a2-3)Gal(b1-3)]Neu5Ac(a2-3)Gal(b1-4)]GlcNAc
# How it was run: as §1
# [25] = biological target: Neu5Ac(a2-3)Gal(b1-4)Glc
# How it was run: as §1
# [26] = biological target: Neu5Ac(a2-3)Gal(b1-4)GlcNAc
# How it was run: as §1
# [27] = biological target: Neu5Ac(a2-3)Gal(b1-4)GlcNAc(b1-2)Man
# How it was run: as §1
# [28] = biological target: Neu5Ac(a2-3)Gal(b1-4)GlcNAc(b1-2)Man(a1-3)[GlcNAc(b1-4)][Neu5Ac(a2-3)Gal(b1-4)GlcNAc(b1-2)Man(a1-6)]Man(b1-4)GlcNAc(b1-4)GlcNAc
# How it was run: as §1
# [29] = biological target: Neu5Ac(a2-3)Gal(b1-4)GlcNAc(b1-2)Man(a1-3)[Neu5Ac(a2-3)Gal(b1-4)GlcNAc(b1-2)Man(a1-6)]Man(b1-4)GlcNAc(b1-4)GlcNAc
# How it was run: as §1
# [30] = biological target: Neu5Ac(a2-3)Gal(b1-4)GlcNAc(b1-2)Man(a1-3)[Neu5Ac(a2-3)Gal(b1-4)GlcNAc(b1-2)Man(a1-6)]Man(b1-4)GlcNAc(b1-4)[Fuc(a1-6)]GlcNAc
# How it was run: as §1
# [31] = biological target: Neu5Ac(a2-3)Gal(b1-4)GlcNAc(b1-2)Man(a1-3)[Neu5Ac(a2-6)Gal(b1-4)GlcNAc(b1-2)Man(a1-6)]Man(b1-4)GlcNAc(b1-4)GlcNAc
# How it was run: as §1
# [32] = biological target: Neu5Ac(a2-3)Gal(b1-4)GlcNAc(b1-2)[Neu5Ac(a2-3)Gal(b1-4)GlcNAc(b1-4)]Man(a1-3)[GlcNAc(b1-4)][Neu5Ac(a2-3)Gal(b1-4)GlcNAc(b1-2)[Neu5Ac(a2-3)Gal(b1-4)GlcNAc(b1-6)]Man(a1-6)]Man(b1-4)GlcNAc(b1-4)GlcNAc
# How it was run: as §1
# [33] = biological target: Neu5Ac(a2-3)Gal(b1-4)GlcNAc(b1-2)[Neu5Ac(a2-3)Gal(b1-4)GlcNAc(b1-4)]Man(a1-3)[GlcNAc(b1-4)][Neu5Ac(a2-3)Gal(b1-4)GlcNAc(b1-4)Man(a1-6)]Man(b1-4)GlcNAc(b1-4)GlcNAc
# How it was run: as §1
# [34] = biological target: Neu5Ac(a2-3)Gal(b1-4)GlcNAc(b1-2)[Neu5Ac(a2-3)Gal(b1-4)GlcNAc(b1-6)]Man(a1-6)[Neu5Ac(a2-3)Gal(b1-4)GlcNAc(b1-2)Man(a1-3)][GlcNAc(b1-4)]Man(b1-4)GlcNAc(b1-4)GlcNAc
# How it was run: as §1
# [35] = biological target: Neu5Ac(a2-3)Gal(b1-4)GlcNAc(b1-3)Gal
# How it was run: as §1
# [36] = biological target: Neu5Ac(a2-3)Gal(b1-4)GlcNAc(b1-3)Gal(b1-3)GlcNAc
# How it was run: as §1
# [37] = biological target: Neu5Ac(a2-3)Gal(b1-4)GlcNAc(b1-3)Gal(b1-4)GlcNAc
# How it was run: as §1
binder,measurement,setting,value
B1,glycan array binding signal (z-score),[1],-0.251
same,glycan array binding signal (z-score),[2],-0.241
same,glycan array binding signal (z-score),[3],-0.243
same,glycan array binding signal (z-score),[4],-0.251
same,glycan array binding signal (z-score),[5],-0.245
same,glycan array binding signal (z-score),[6],-0.245
same,glycan array binding signal (z-score),[7],-0.243
same,glycan array binding signal (z-score),[8],-0.252
same,glycan array binding signal (z-score),[9],-0.245
same,glycan array binding signal (z-score),[10],-0.248
same,glycan array binding signal (z-score),[11],-0.233
same,glycan array binding signal (z-score),[12],-0.253
same,glycan array binding signal (z-score),[13],-0.252
same,glycan array binding signal (z-score),[14],-0.252
same,glycan array binding signal (z-score),[15],-0.251
same,glycan array binding signal (z-score),[16],2.82
same,glycan array binding signal (z-score),[17],-0.243
same,glycan array binding signal (z-score),[18],-0.249
same,glycan array binding signal (z-score),[19],-0.219
same,glycan array binding signal (z-score),[20],-0.219
same,glycan array binding signal (z-score),[21],-0.817
same,glycan array binding signal (z-score),[22],-0.217
same,glycan array binding signal (z-score),[23],-0.232
same,glycan array binding signal (z-score),[24],-0.234
same,glycan array binding signal (z-score),[25],-0.306
same,glycan array binding signal (z-score),[26],-0.24
same,glycan array binding signal (z-score),[27],-0.19
same,glycan array binding signal (z-score),[28],-0.24
same,glycan array binding signal (z-score),[29],-0.19
same,glycan array binding signal (z-score),[30],-0.237
same,glycan array binding signal (z-score),[31],-0.239
same,glycan array binding signal (z-score),[32],-0.245
same,glycan array binding signal (z-score),[33],-0.243
same,glycan array binding signal (z-score),[34],-0.24
same,glycan array binding signal (z-score),[35],-0.539
same,glycan array binding signal (z-score),[36],-0.241
same,glycan array binding signal (z-score),[37],-0.238
